# T1: IL-2Rβ (CD2-H5221, Acrobiosystem) (UniProt P14784 27-239)
# T1 construct: Bought reagent
# T1 sequence (looked up): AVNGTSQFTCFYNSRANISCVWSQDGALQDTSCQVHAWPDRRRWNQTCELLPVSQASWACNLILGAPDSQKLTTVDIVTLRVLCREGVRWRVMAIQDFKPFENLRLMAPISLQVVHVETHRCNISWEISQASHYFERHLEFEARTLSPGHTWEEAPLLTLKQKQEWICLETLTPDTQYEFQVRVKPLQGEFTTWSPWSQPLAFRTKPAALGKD
# T2: IL-2Rα (ILA-H52H9, Acrobiosystem) (UniProt P01589 22-217, limits assumed)
# T2 construct: Bought reagent
# T2 sequence (looked up): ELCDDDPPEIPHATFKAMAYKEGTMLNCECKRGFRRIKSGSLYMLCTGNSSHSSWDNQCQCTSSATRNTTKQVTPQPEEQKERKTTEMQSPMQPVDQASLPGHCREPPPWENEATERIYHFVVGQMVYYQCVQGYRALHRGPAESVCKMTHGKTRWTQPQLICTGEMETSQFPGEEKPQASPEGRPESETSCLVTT
# Legend:
# [1] = target: T1, IL-2Rβ (CD2-H5221, Acrobiosystem); assay: Octet, steady-state fit, fusion protein stationary, IL-2Rβ mobile
# [2] = target: T2, IL-2Rα (ILA-H52H9, Acrobiosystem); assay: Octet, fusion protein on Protein A sensor, IL-2Rα 100-3.125 nM, 1:1 kinetic fit
# [3] = target: T2, IL-2Rα (ILA-H52H9, Acrobiosystem); assay: Octet, fusion protein on Protein A sensor, IL-2Rα 100-3.125 nM in solution
Binder,binding result [1],Kd [2],koff [2],kon [2],Kd [1],binding result [3]
"A2-22-a fusion protein (IL-2 T3A - (G4S)5 - N-terminus of the heavy chain of A2-22) (other, Antibody-IL-2 fusion protein; human IL-2 with T3A joined by a (G4S)5 linker; IgG1 LALA) heavy: [letters of about 150 residues not shown]GGGGSGGGGSGGGGSGGGGSGGGGSQVQLVQSGAEVKKPGASVKVSCKASGYTFTSYYMHWVRQAPGQGLEWMGIINPSGGSTSYAQKFQGRVTMTRDTSTSTVYMELSSLRSEDTAVYYCAREDWMEYEYYYGMDVWGQGTLVTVSS[letters of human IgG1 constant region with changes not shown] light: EIVLTQSPGTLSLSPGERATLSCRASQSVSNNYLAWYQQKPGQAPRLLIYGASSRATGIPDRFSGSGSGTDFTLTISRLEPEDFAVYSCQQYGSSPLTFGQGTRLEIKRTVAAPSVFIFPPSDEQLKSGTASVVCLLNNFYPREAKVQWKVDNALQSGNSQESVTEQDSKDSTYSLSSTLTLSKADYEKHKVYACEVTHQGLSSPVTKSFNRGEC",no binding,40.6 nM,0.0375 s⁻¹,922000 M⁻¹ s⁻¹,,
"A2-22-b fusion protein (IL-2 T3A - (G4S)5 - N-terminus of the light chain of A2-22) (other, Antibody-IL-2 fusion protein; human IL-2 with T3A joined by a (G4S)5 linker; IgG1 LALA) heavy: QVQLVQSGAEVKKPGASVKVSCKASGYTFTSYYMHWVRQAPGQGLEWMGIINPSGGSTSYAQKFQGRVTMTRDTSTSTVYMELSSLRSEDTAVYYCAREDWMEYEYYYGMDVWGQGTLVTVSS[letters of human IgG1 constant region with changes not shown] light: [letters of about 150 residues not shown]GGGGSGGGGSGGGGSGGGGSGGGGSEIVLTQSPGTLSLSPGERATLSCRASQSVSNNYLAWYQQKPGQAPRLLIYGASSRATGIPDRFSGSGSGTDFTLTISRLEPEDFAVYSCQQYGSSPLTFGQGTRLEIKRTVAAPSVFIFPPSDEQLKSGTASVVCLLNNFYPREAKVQWKVDNALQSGNSQESVTEQDSKDSTYSLSSTLTLSKADYEKHKVYACEVTHQGLSSPVTKSFNRGEC",no binding,25.3 nM,0.0413 s⁻¹,1.63e+06 M⁻¹ s⁻¹,,
"D2-60-b fusion protein (IL-2 T3A - (G4S)5 - N-terminus of the light chain of D2-60) (other, Antibody-IL-2 fusion protein; human IL-2 with T3A joined by a (G4S)5 linker; IgG1 LALA) heavy: QVQLVQSGAEVKKPGASVKVSCKASGYTFTSYGISWVRQAPGQGLEWMGWISAYNGNTNYAQKLQGRVTMTTDTSTSTAYMELRSLRSDDTAVYYCAREYSSWYSGGMDVWGQGTTVTVSS[letters of human IgG1 constant region with changes not shown] light: [letters of about 150 residues not shown]GGGGSGGGGSGGGGSGGGGSGGGGSDIQMTQSPSSLSASVGDRVTITCRASQGISNYLAWYQQKPGKVPKLLIYAASTLQSGVPSRFSGSGSGTDFTLTISSLQPEDVATYYCQKYDSAPFTFGQGTRLEIKRTVAAPSVFIFPPSDEQLKSGTASVVCLLNNFYPREAKVQWKVDNALQSGNSQESVTEQDSKDSTYSLSSTLTLSKADYEKHKVYACEVTHQGLSSPVTKSFNRGEC",no binding,45.1 nM,0.0561 s⁻¹,1.24e+06 M⁻¹ s⁻¹,,
"D3-68-b fusion protein (IL-2 T3A - (G4S)5 - N-terminus of the light chain of D3-68) (other, Antibody-IL-2 fusion protein; human IL-2 with T3A joined by a (G4S)5 linker; IgG1 LALA) heavy: QVQLVQSGPEVKKPGASVKVSCKASGYTFTSYGISWVRRAPGQGLEWMGWISAYNGNTNYAQKLQGRVTMTTDTSTSTAYMELRSLRSDDTAVYYCARDLQSPTYYYGSGVIDYWGQGTLVTVSS[letters of human IgG1 constant region with changes not shown] light: [letters of about 150 residues not shown]GGGGSGGGGSGGGGSGGGGSGGGGSDIQLTQSPSTLSASVGDRVTISCRASRAVSPWLAWYQHRPGQAPKLLIYAASSLQSGVPSRFSGSGSGTDFTLTISSLQPEDFATYYCQQYRSYPFTFGPGTTVDIRRTVAAPSVFIFPPSDEQLKSGTASVVCLLNNFYPREAKVQWKVDNALQSGNSQESVTEQDSKDSTYSLSSTLTLSKADYEKHKVYACEVTHQGLSSPVTKSFNRGEC",,,,,1100 nM,no binding (tested: 100 nM (highest IL-2Rα concentration))
"A3-21-a fusion protein (IL-2 T3A - (G4S)5 - N-terminus of the heavy chain of A3-21) (other, Antibody-IL-2 fusion protein; human IL-2 with T3A joined by a (G4S)5 linker; IgG1 LALA) heavy: [letters of about 150 residues not shown]GGGGSGGGGSGGGGSGGGGSGGGGSEVQLLESGGGLAQPGGSLRLSCAGSGFTFSSYAMSWVRQAPGKGLEWVSGITGTGYRTYYADSVKGRFTVSRDNSRNTVYLQMNSLRAEDTAVYYCVRESGHYYGWFDSWGQGTLVTVSS[letters of human IgG1 constant region with changes not shown] light: QSALTQPPSVSGAPGQRVTISCTGSSSNIGAGYNVHWYQQVPGTVPKLLIDGKGNRPSGVPDRFSGSKSGTSASLAITGLQAEDEADYYCQSYDYMLSGSVVFGRGTKLTVLGQPKANPTVTLFPPSSEELQANKATLVCLISDFYPGAVTVAWKADGSPVKAGVETTKPSKQSNNKYAASSYLSLTPEQWKSHRSYSCQVTHEGSTVEKTVAPTECS",no binding,,,,,no binding (tested: 100 nM (highest IL-2Rα concentration))
